Measured values reported in patent US10517292B2 (priority 2015, dated 2019).

Conditions: absorbed on shell pieces, under air in the light; appearance of hexadecenoic acid by oxidation; FIG. 2
Experimental: A paintball projectile shell consisting of an oxo-biodegradable polyolefin is cut into small pieces of the order of 2 to 5 mm^2. The pieces thus obtained are placed in a reactor containing a magnetic stirrer. The reactor is placed under nitrogen.
100 mg of the hexadecenal mixture described above is added to the pieces and stirring is maintained until the liquid has been completely absorbed by the pieces.
The pieces are then separated in two portions:
The first half is stored in an aluminum foil pouch, under nitrogen (control). The second half is placed in a closed transparent cup under air in the light. Pieces are regularly analyzed by gas chromatography. Changes in the pheromonal mixture are reported in the following graph (FIG. 2): […]

**Q.** With “Z and E-11 hexadecenal [pheromone mixture]” as the substance, how does the “Stability of the pheromone mixture in direct contact with oxo-biodegradable polyolefin” value read?
**A.** decomposes
